Data reported in the supplement of paper PMC11876631.
± gives the standard deviation of the averaged measurements. Laboratory Escherichia coli strains with one amino-acid change in an essential protein, pooled on minimal glucose agar with carbenicillin or gentamicin at twice the control MIC (plus kanamycin and chloramphenicol for the plasmids), 48 h. Fold change of barcode share against drug-free plates; higher = less susceptible. Active = above 20 in both replicates (the paper's putatively resistant). '<' = one read or none on drug, '>' = one read or none on a drug-free plate. Shares are relative, so most strains fall below 1 when a few take over. Listed are strains with at least 15 reads on both drug-free plates, and hits; most hits rest on fewer reference reads. Replicate rank correlation about 0.5. Edits are read from barcodes.

Target: Escherichia coli (laboratory strain)
Test: barcode share on antibiotic plates over drug-free plates; higher = less susceptible
Procedure: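 A pool of E. coli strains, each edited to carry one amino-acid change in an essential protein, was grown for 48 h on minimal glucose agar with or without antibiotic; strain barcodes were sequenced; mean of two replicates.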

[1] = antibiotic: carbenicillin, 2× MIC (3.1 µg/mL)
[2] = antibiotic: gentamicin, 2× MIC (MIC 0.45 µg/mL)

| Protein | fold change of barcode share [1] | fold change of barcode share [2] |
| --- | --- | --- |
| mukB V714A (protein) MIERGKFRSLTLINWNGFFARTFDLDELVTTLSGGNGAGKSTTMAAFVTALIPDLTLLHFRNTTEAGATSGSRDKGLHGKLKAGVCYSMLDTINSRHQRVVVGVRLQQVAGRDRKVDIKPFAIQGLPMSVQPTQLVTETLNERQARVLPLNELKDKLEAMEGVQFKQFNSITDYHSLMFDLGIIARRLRSASDRSKFYRLIEASLYGGISSAITRSLRDYLLPENSGVRKAFQDMEAALRENRMTLEAIRVTQSDRDLFKHLISEATNYVAADYMRHANERRVHLDKALEFRRELHTSRQQLAAEQYKHVDMARELAEHNGAEGDLEADYQAASDHLNLVQTALRQQEKIERYEADLDELQIRLEEQNEVVAEAIERQQENEARAEAAELEVDELKSQLADYQQALDVQQTRAIQYNQAIAALNRAKELCHLPDLTADCAAEWLETFQAKELEATEKMLSLEQKMSMAQTAHSQFEQAYQLVVAINGPLARNEAWDVARELLREGVDQRHLAEQVQPLRMRLSELEQRLREQQEAERLLADFCKRQGKNFDIDELEALHQELEARIASLSDSVSNAREERMALRQEQEQLQSRIQSLMQRAPVWLAAQNSLNQLSEQCGEEFTSSQDVTEYLQQLLEREREAIVERDEVGARKNAVDEEIERLSQPGGSEDQRLNALAERFGGVLLSEIYDDVSLEDAPYFSALYGPSRHAIVAPDLSQVTEHLEGLTDCPEDLYLIEGDPQSFDDSVFSVDELEKAVVVKIADRQWRYSRFPEVPLFGRAARESRIESLHAEREVLSERFATLSFDVQKTQRLHQAFSRFIGSHLAVAFESDPEAEIRQLNSRRVELERALSNHENDNQQQRIQFEQAKEGVTALNRILPRLNLLADDSLADRVDEIRERLDEAQEAARFVQQFGNQLAKLEPIVSVLQSDPEQFEQLKEDYAYSQQMQRDARQQAFALTEVVQRRAHFSYSDSAEMLSGNSDLNEKLRERLEQAEAERTRAREALRGHAAQLSQYNQVLASLKSSYDTKKELLNDLQRELQDIGVRADSGAEERARIRRDELHAQLSNNRSRRNQLEKALTFCEAEMDNLTRKLRKLERDYFEMREQVVTAKAGWCAVMRMVKDNGVERRLHRRELAYLSADDLRSMSDKALGALRLAVADNEHLRDVLRMSEDPKRPERKIQFFVAVYQHLRERIRQDIIRTDDPVEAIEQMEIELSRLTEELTSREQKLAISSRSVANIIRKTIQREQNRIRMLNQGLQNVSFGQVNSVRLNVNVRETHAMLLDVLSEQHEQHQDLFNSNRLTFSEALAKLYQRLNPQIDMGQRTPQTIGEELLDYRNYLEMEVEVNRGSDGWLRAESGALSTGEAIGTGMSILVMVVQSWEDESRRLRGKDISPCRLLFLDEAARLDARSIATLFELCERLQMQLIIAAPENISPEKGTTYKLVRKVFQNTEHVHVVGLRGFAPQLPETLPGTDEAPSQAS | 0.314 ± 0.17 | 0.00591 ± 0.00096 |
| mukB V714Q (protein) MIERGKFRSLTLINWNGFFARTFDLDELVTTLSGGNGAGKSTTMAAFVTALIPDLTLLHFRNTTEAGATSGSRDKGLHGKLKAGVCYSMLDTINSRHQRVVVGVRLQQVAGRDRKVDIKPFAIQGLPMSVQPTQLVTETLNERQARVLPLNELKDKLEAMEGVQFKQFNSITDYHSLMFDLGIIARRLRSASDRSKFYRLIEASLYGGISSAITRSLRDYLLPENSGVRKAFQDMEAALRENRMTLEAIRVTQSDRDLFKHLISEATNYVAADYMRHANERRVHLDKALEFRRELHTSRQQLAAEQYKHVDMARELAEHNGAEGDLEADYQAASDHLNLVQTALRQQEKIERYEADLDELQIRLEEQNEVVAEAIERQQENEARAEAAELEVDELKSQLADYQQALDVQQTRAIQYNQAIAALNRAKELCHLPDLTADCAAEWLETFQAKELEATEKMLSLEQKMSMAQTAHSQFEQAYQLVVAINGPLARNEAWDVARELLREGVDQRHLAEQVQPLRMRLSELEQRLREQQEAERLLADFCKRQGKNFDIDELEALHQELEARIASLSDSVSNAREERMALRQEQEQLQSRIQSLMQRAPVWLAAQNSLNQLSEQCGEEFTSSQDVTEYLQQLLEREREAIVERDEVGARKNAVDEEIERLSQPGGSEDQRLNALAERFGGVLLSEIYDDVSLEDAPYFSALYGPSRHAIVQPDLSQVTEHLEGLTDCPEDLYLIEGDPQSFDDSVFSVDELEKAVVVKIADRQWRYSRFPEVPLFGRAARESRIESLHAEREVLSERFATLSFDVQKTQRLHQAFSRFIGSHLAVAFESDPEAEIRQLNSRRVELERALSNHENDNQQQRIQFEQAKEGVTALNRILPRLNLLADDSLADRVDEIRERLDEAQEAARFVQQFGNQLAKLEPIVSVLQSDPEQFEQLKEDYAYSQQMQRDARQQAFALTEVVQRRAHFSYSDSAEMLSGNSDLNEKLRERLEQAEAERTRAREALRGHAAQLSQYNQVLASLKSSYDTKKELLNDLQRELQDIGVRADSGAEERARIRRDELHAQLSNNRSRRNQLEKALTFCEAEMDNLTRKLRKLERDYFEMREQVVTAKAGWCAVMRMVKDNGVERRLHRRELAYLSADDLRSMSDKALGALRLAVADNEHLRDVLRMSEDPKRPERKIQFFVAVYQHLRERIRQDIIRTDDPVEAIEQMEIELSRLTEELTSREQKLAISSRSVANIIRKTIQREQNRIRMLNQGLQNVSFGQVNSVRLNVNVRETHAMLLDVLSEQHEQHQDLFNSNRLTFSEALAKLYQRLNPQIDMGQRTPQTIGEELLDYRNYLEMEVEVNRGSDGWLRAESGALSTGEAIGTGMSILVMVVQSWEDESRRLRGKDISPCRLLFLDEAARLDARSIATLFELCERLQMQLIIAAPENISPEKGTTYKLVRKVFQNTEHVHVVGLRGFAPQLPETLPGTDEAPSQAS | 0.232 ± 0.12 | 0.0691 ± 0.083 |
| mukB V714W (protein) MIERGKFRSLTLINWNGFFARTFDLDELVTTLSGGNGAGKSTTMAAFVTALIPDLTLLHFRNTTEAGATSGSRDKGLHGKLKAGVCYSMLDTINSRHQRVVVGVRLQQVAGRDRKVDIKPFAIQGLPMSVQPTQLVTETLNERQARVLPLNELKDKLEAMEGVQFKQFNSITDYHSLMFDLGIIARRLRSASDRSKFYRLIEASLYGGISSAITRSLRDYLLPENSGVRKAFQDMEAALRENRMTLEAIRVTQSDRDLFKHLISEATNYVAADYMRHANERRVHLDKALEFRRELHTSRQQLAAEQYKHVDMARELAEHNGAEGDLEADYQAASDHLNLVQTALRQQEKIERYEADLDELQIRLEEQNEVVAEAIERQQENEARAEAAELEVDELKSQLADYQQALDVQQTRAIQYNQAIAALNRAKELCHLPDLTADCAAEWLETFQAKELEATEKMLSLEQKMSMAQTAHSQFEQAYQLVVAINGPLARNEAWDVARELLREGVDQRHLAEQVQPLRMRLSELEQRLREQQEAERLLADFCKRQGKNFDIDELEALHQELEARIASLSDSVSNAREERMALRQEQEQLQSRIQSLMQRAPVWLAAQNSLNQLSEQCGEEFTSSQDVTEYLQQLLEREREAIVERDEVGARKNAVDEEIERLSQPGGSEDQRLNALAERFGGVLLSEIYDDVSLEDAPYFSALYGPSRHAIVWPDLSQVTEHLEGLTDCPEDLYLIEGDPQSFDDSVFSVDELEKAVVVKIADRQWRYSRFPEVPLFGRAARESRIESLHAEREVLSERFATLSFDVQKTQRLHQAFSRFIGSHLAVAFESDPEAEIRQLNSRRVELERALSNHENDNQQQRIQFEQAKEGVTALNRILPRLNLLADDSLADRVDEIRERLDEAQEAARFVQQFGNQLAKLEPIVSVLQSDPEQFEQLKEDYAYSQQMQRDARQQAFALTEVVQRRAHFSYSDSAEMLSGNSDLNEKLRERLEQAEAERTRAREALRGHAAQLSQYNQVLASLKSSYDTKKELLNDLQRELQDIGVRADSGAEERARIRRDELHAQLSNNRSRRNQLEKALTFCEAEMDNLTRKLRKLERDYFEMREQVVTAKAGWCAVMRMVKDNGVERRLHRRELAYLSADDLRSMSDKALGALRLAVADNEHLRDVLRMSEDPKRPERKIQFFVAVYQHLRERIRQDIIRTDDPVEAIEQMEIELSRLTEELTSREQKLAISSRSVANIIRKTIQREQNRIRMLNQGLQNVSFGQVNSVRLNVNVRETHAMLLDVLSEQHEQHQDLFNSNRLTFSEALAKLYQRLNPQIDMGQRTPQTIGEELLDYRNYLEMEVEVNRGSDGWLRAESGALSTGEAIGTGMSILVMVVQSWEDESRRLRGKDISPCRLLFLDEAARLDARSIATLFELCERLQMQLIIAAPENISPEKGTTYKLVRKVFQNTEHVHVVGLRGFAPQLPETLPGTDEAPSQAS | 0.163 ± 0.089 | < 0.0151 |
| mukB V760W (protein) MIERGKFRSLTLINWNGFFARTFDLDELVTTLSGGNGAGKSTTMAAFVTALIPDLTLLHFRNTTEAGATSGSRDKGLHGKLKAGVCYSMLDTINSRHQRVVVGVRLQQVAGRDRKVDIKPFAIQGLPMSVQPTQLVTETLNERQARVLPLNELKDKLEAMEGVQFKQFNSITDYHSLMFDLGIIARRLRSASDRSKFYRLIEASLYGGISSAITRSLRDYLLPENSGVRKAFQDMEAALRENRMTLEAIRVTQSDRDLFKHLISEATNYVAADYMRHANERRVHLDKALEFRRELHTSRQQLAAEQYKHVDMARELAEHNGAEGDLEADYQAASDHLNLVQTALRQQEKIERYEADLDELQIRLEEQNEVVAEAIERQQENEARAEAAELEVDELKSQLADYQQALDVQQTRAIQYNQAIAALNRAKELCHLPDLTADCAAEWLETFQAKELEATEKMLSLEQKMSMAQTAHSQFEQAYQLVVAINGPLARNEAWDVARELLREGVDQRHLAEQVQPLRMRLSELEQRLREQQEAERLLADFCKRQGKNFDIDELEALHQELEARIASLSDSVSNAREERMALRQEQEQLQSRIQSLMQRAPVWLAAQNSLNQLSEQCGEEFTSSQDVTEYLQQLLEREREAIVERDEVGARKNAVDEEIERLSQPGGSEDQRLNALAERFGGVLLSEIYDDVSLEDAPYFSALYGPSRHAIVVPDLSQVTEHLEGLTDCPEDLYLIEGDPQSFDDSVFSVDELEKAVVWKIADRQWRYSRFPEVPLFGRAARESRIESLHAEREVLSERFATLSFDVQKTQRLHQAFSRFIGSHLAVAFESDPEAEIRQLNSRRVELERALSNHENDNQQQRIQFEQAKEGVTALNRILPRLNLLADDSLADRVDEIRERLDEAQEAARFVQQFGNQLAKLEPIVSVLQSDPEQFEQLKEDYAYSQQMQRDARQQAFALTEVVQRRAHFSYSDSAEMLSGNSDLNEKLRERLEQAEAERTRAREALRGHAAQLSQYNQVLASLKSSYDTKKELLNDLQRELQDIGVRADSGAEERARIRRDELHAQLSNNRSRRNQLEKALTFCEAEMDNLTRKLRKLERDYFEMREQVVTAKAGWCAVMRMVKDNGVERRLHRRELAYLSADDLRSMSDKALGALRLAVADNEHLRDVLRMSEDPKRPERKIQFFVAVYQHLRERIRQDIIRTDDPVEAIEQMEIELSRLTEELTSREQKLAISSRSVANIIRKTIQREQNRIRMLNQGLQNVSFGQVNSVRLNVNVRETHAMLLDVLSEQHEQHQDLFNSNRLTFSEALAKLYQRLNPQIDMGQRTPQTIGEELLDYRNYLEMEVEVNRGSDGWLRAESGALSTGEAIGTGMSILVMVVQSWEDESRRLRGKDISPCRLLFLDEAARLDARSIATLFELCERLQMQLIIAAPENISPEKGTTYKLVRKVFQNTEHVHVVGLRGFAPQLPETLPGTDEAPSQAS | 0.303 ± 0.23 | < 0.0145 |
